These results are taken from patent US11178870B2 (priority 2017, dated 2021).

Common to all, as to assay type: in vivo
One test concerns Alternaia brassicicola. Kind of test: Test Example C: Alternaria sooty spot on cabbage. The following applies: Alternaria sooty spot on cabbage.
The subject of test [1] is Blumeria graminis f. sp. hordei. Put plainly: Test Example D: Powdery mildew on barley. The following applies: Powdery mildew on barley.
The next test concerns Botrytis cinerea. Put plainly: Test Example B: Gray mold on tomato. As to conditions: Gray mold on tomato.
In the next test the test system is Puccinia recondita. Kind of test: Test Example E: Brown rust on wheat. As to conditions: Brown rust on wheat.
The subject of a further test is Plasmopara viticola. Kind of test: Test Example G: Downy mildew on vine. As to conditions: Downy mildew on vine; 250 ppm sprayed, 2.5 ml/pot; 7 to 10 days after inoculation.

Turning to `CCn1c(-c2c(F)cccc2F)c(-c2ocnc2F)cc(Cl)c1=O` [Compound 51], the “Test C control value” with Alternaia brassicicola is reported as “H (H shows the control value more than 50%)”. For the same molecule, the “Test D control value” in test [1] was “H (H shows the control value more than 50%)”. In the test on Botrytis cinerea, the “Test B control value” is listed as “H (H shows the control value more than 50%)”. Also, the “Test E control value” in the test on Puccinia recondita was “H (H shows the control value more than 50%)”. In the test with Plasmopara viticola, the “Test G control value” is reported as “H (H shows the control value more than 50%)”.

On to `CCn1c(-c2c(F)cccc2F)c(-n2cc(Cl)cn2)ccc1=O` [Compound 52], for which, in the test on Alternaia brassicicola, the “Test C control value” is recorded as “H (H shows the control value more than 50%)”. The “Test D control value” in test [1] is reported as “H (H shows the control value more than 50%)”. The “Test B control value” with Botrytis cinerea was “H (H shows the control value more than 50%)”. Also, the “Test E control value” in the test on Puccinia recondita is recorded as “H (H shows the control value more than 50%)”. In addition, the “Test G control value” with Plasmopara viticola is “L (L shows the control value of 50% or less)”.

Regarding `CCn1c(-c2c(F)cccc2F)c(-n2cc(Cl)cn2)cc(Cl)c1=O` [Compound 53], the “Test C control value” in the test on Alternaia brassicicola is “H (H shows the control value more than 50%)”. In addition, the “Test D control value” in test [1] is reported as “L (L shows the control value of 50% or less)”. Further, the “Test B control value” with Botrytis cinerea is recorded as “H (H shows the control value more than 50%)”. For the same molecule, in the test on Puccinia recondita, the “Test E control value” is listed as “H (H shows the control value more than 50%)”. Also, in the test with Plasmopara viticola, the “Test G control value” is given as “L (L shows the control value of 50% or less)”.

For `CCn1c(-c2c(F)cccc2F)c(-c2ccsc2Br)cc(Br)c1=O` [Compound 54], the “Test C control value” with Alternaia brassicicola is “H (H shows the control value more than 50%)”. For the same molecule, in test [1], the “Test D control value” is listed as “H (H shows the control value more than 50%)”. Moreover, the “Test B control value” in the test with Botrytis cinerea was “H (H shows the control value more than 50%)”. Further, in the test with Puccinia recondita, the “Test E control value” is “H (H shows the control value more than 50%)”. Further, the “Test G control value” in the test on Plasmopara viticola was “L (L shows the control value of 50% or less)”.

In the case of `CCn1c(-c2c(F)cccc2F)c(-c2cccnc2Cl)cc(Br)c1=O` [Compound 55], the “Test C control value” in the test on Alternaia brassicicola was “H (H shows the control value more than 50%)”. Besides, the “Test D control value” in test [1] is given as “H (H shows the control value more than 50%)”. The “Test B control value” with Botrytis cinerea was “H (H shows the control value more than 50%)”. Moreover, the “Test E control value” with Puccinia recondita is “H (H shows the control value more than 50%)”. Besides, in the test on Plasmopara viticola, the “Test G control value” is given as “L (L shows the control value of 50% or less)”.

Regarding `O=c1ccc(-c2cccnc2Cl)c(-c2c(F)cccc2F)n1CC(F)F` [Compound 56], in the test on Alternaia brassicicola, the “Test C control value” was “H (H shows the control value more than 50%)”. Besides, in test [1], the “Test D control value” is reported as “H (H shows the control value more than 50%)”. The “Test B control value” in the test on Botrytis cinerea is recorded as “H (H shows the control value more than 50%)”. The “Test E control value” in the test with Puccinia recondita is given as “H (H shows the control value more than 50%)”. The “Test G control value” in the test on Plasmopara viticola is “H (H shows the control value more than 50%)”.

With `O=c1c(Cl)cc(-c2cccnc2Cl)c(-c2c(F)cccc2F)n1CC(F)F` [Compound 57], the “Test C control value” with Alternaia brassicicola was “H (H shows the control value more than 50%)”. The “Test D control value” in test [1] is on record as “H (H shows the control value more than 50%)”. Also, the “Test B control value” in the test with Botrytis cinerea is “H (H shows the control value more than 50%)”. The “Test E control value” in the test with Puccinia recondita was “H (H shows the control value more than 50%)”. Besides, the “Test G control value” in the test on Plasmopara viticola is listed as “L (L shows the control value of 50% or less)”.

As for `O=c1ccc(-c2cccnc2Cl)c(-c2c(F)cccc2F)n1CC(F)(F)F` [Compound 58], in the test on Alternaia brassicicola, the “Test C control value” is on record as “L (L shows the control value of 50% or less)”. The “Test D control value” in test [1] was “H (H shows the control value more than 50%)”. In addition, the “Test B control value” in the test on Botrytis cinerea is reported as “H (H shows the control value more than 50%)”. For the same molecule, in the test with Puccinia recondita, the “Test E control value” is recorded as “H (H shows the control value more than 50%)”. The “Test G control value” with Plasmopara viticola was “L (L shows the control value of 50% or less)”.

Take `O=c1c(Br)cc(-c2cccnc2Cl)c(-c2c(F)cccc2F)n1CC(F)F` [Compound 59]: in the test with Alternaia brassicicola, the “Test C control value” is listed as “H (H shows the control value more than 50%)”. Besides, in test [1], the “Test D control value” is recorded as “H (H shows the control value more than 50%)”. Also, in the test with Botrytis cinerea, the “Test B control value” is on record as “H (H shows the control value more than 50%)”. In addition, the “Test E control value” in the test with Puccinia recondita was “H (H shows the control value more than 50%)”. The “Test G control value” in the test on Plasmopara viticola was “L (L shows the control value of 50% or less)”.

For the molecule `CCn1c(-c2c(F)cc(F)cc2F)c(-c2cccnc2Cl)ccc1=O` [Compound 61], the “Test C control value” in the test on Alternaia brassicicola was “H (H shows the control value more than 50%)”. Moreover, the “Test D control value” in test [1] is listed as “H (H shows the control value more than 50%)”. Besides, in the test on Botrytis cinerea, the “Test B control value” was “H (H shows the control value more than 50%)”. Also, the “Test E control value” in the test with Puccinia recondita is on record as “H (H shows the control value more than 50%)”. Further, in the test with Plasmopara viticola, the “Test G control value” is “H (H shows the control value more than 50%)”.

`CCn1c(-c2c(F)cc(F)cc2F)c(-c2cccnc2Cl)cc(Cl)c1=O` [Compound 62]: the “Test C control value” in the test with Alternaia brassicicola is listed as “H (H shows the control value more than 50%)”. Also, in test [1], the “Test D control value” is recorded as “H (H shows the control value more than 50%)”. In the test on Botrytis cinerea, the “Test B control value” was “H (H shows the control value more than 50%)”. The “Test E control value” in the test with Puccinia recondita is on record as “H (H shows the control value more than 50%)”. For the same molecule, in the test with Plasmopara viticola, the “Test G control value” is recorded as “H (H shows the control value more than 50%)”.

In the case of `CCn1c(-c2c(F)cc(F)cc2F)c(-c2cccnc2Cl)cc(Br)c1=O` [Compound 63], in the test on Alternaia brassicicola, the “Test C control value” is listed as “H (H shows the control value more than 50%)”. Besides, the “Test D control value” in test [1] is “H (H shows the control value more than 50%)”. The “Test B control value” with Botrytis cinerea was “H (H shows the control value more than 50%)”. In addition, in the test on Puccinia recondita, the “Test E control value” was “H (H shows the control value more than 50%)”. Further, the “Test G control value” with Plasmopara viticola was “H (H shows the control value more than 50%)”.

Turning to `O=c1c(Br)cc(-c2cccnc2Cl)c(-c2c(F)cccc2F)n1CC(F)(F)F` [Compound 64], the “Test C control value” in the test with Alternaia brassicicola was “L (L shows the control value of 50% or less)”. The “Test D control value” in test [1] is reported as “H (H shows the control value more than 50%)”. Also, the “Test B control value” with Botrytis cinerea is reported as “H (H shows the control value more than 50%)”. Moreover, in the test with Puccinia recondita, the “Test E control value” is recorded as “H (H shows the control value more than 50%)”. Also, the “Test G control value” with Plasmopara viticola is reported as “L (L shows the control value of 50% or less)”.

As for `CCn1c(-c2c(F)cccc2F)c(-c2cccnc2Cl)cc(I)c1=O` [Compound 65], the “Test C control value” with Alternaia brassicicola is “H (H shows the control value more than 50%)”. For the same molecule, the “Test D control value” in test [1] is listed as “H (H shows the control value more than 50%)”. In addition, the “Test B control value” in the test with Botrytis cinerea is on record as “H (H shows the control value more than 50%)”. Also, the “Test E control value” in the test with Puccinia recondita was “H (H shows the control value more than 50%)”. Further, in the test with Plasmopara viticola, the “Test G control value” was “H (H shows the control value more than 50%)”.

With `O=c1ccc(-c2cccnc2Cl)c(-c2c(F)cc(F)cc2F)n1CC(F)F` [Compound 67], the “Test C control value” in the test on Alternaia brassicicola is “H (H shows the control value more than 50%)”. The “Test D control value” in test [1] was “H (H shows the control value more than 50%)”. Further, the “Test B control value” in the test on Botrytis cinerea is “H (H shows the control value more than 50%)”. Moreover, the “Test E control value” in the test with Puccinia recondita is listed as “H (H shows the control value more than 50%)”. Moreover, the “Test G control value” in the test with Plasmopara viticola is “H (H shows the control value more than 50%)”.

On to `O=c1c(Cl)cc(-c2cccnc2Cl)c(-c2c(F)cc(F)cc2F)n1CC(F)F` [Compound 68], for which the “Test C control value” in the test on Alternaia brassicicola was “H (H shows the control value more than 50%)”. Moreover, in test [1], the “Test D control value” is recorded as “H (H shows the control value more than 50%)”. For the same molecule, the “Test B control value” in the test on Botrytis cinerea is listed as “H (H shows the control value more than 50%)”. Besides, the “Test E control value” in the test on Puccinia recondita is recorded as “H (H shows the control value more than 50%)”. The “Test G control value” with Plasmopara viticola was “L (L shows the control value of 50% or less)”.

Turning to `O=c1c(Br)cc(-c2cccnc2Cl)c(-c2c(F)cc(F)cc2F)n1CC(F)F` [Compound 69], the “Test C control value” in the test with Alternaia brassicicola is given as “H (H shows the control value more than 50%)”. Besides, the “Test D control value” in test [1] is “H (H shows the control value more than 50%)”. Besides, in the test with Botrytis cinerea, the “Test B control value” is on record as “H (H shows the control value more than 50%)”. The “Test E control value” with Puccinia recondita is reported as “H (H shows the control value more than 50%)”. In the test on Plasmopara viticola, the “Test G control value” was “L (L shows the control value of 50% or less)”.

Regarding `CCn1c(-c2c(F)cc(OC)cc2F)c(-n2cc(Cl)cn2)cc(Br)c1=O` [Compound 73], the “Test C control value” with Alternaia brassicicola was “H (H shows the control value more than 50%)”. Besides, the “Test D control value” in test [1] was “H (H shows the control value more than 50%)”. Further, the “Test B control value” with Botrytis cinerea was “H (H shows the control value more than 50%)”. Moreover, the “Test E control value” with Puccinia recondita was “H (H shows the control value more than 50%)”. The “Test G control value” in the test with Plasmopara viticola is “L (L shows the control value of 50% or less)”.

For `CCn1c(-c2c(F)cccc2F)c(-c2oc(I)nc2I)cc(Cl)c1=O` [Compound 75], in the test on Alternaia brassicicola, the “Test C control value” is “H (H shows the control value more than 50%)”. Also, the “Test D control value” in test [1] is “L (L shows the control value of 50% or less)”. Also, in the test with Botrytis cinerea, the “Test B control value” was “H (H shows the control value more than 50%)”. Moreover, in the test on Puccinia recondita, the “Test E control value” is listed as “L (L shows the control value of 50% or less)”. Also, the “Test G control value” with Plasmopara viticola was “L (L shows the control value of 50% or less)”.

On to `CCn1c(-c2c(F)cc(F)cc2F)c(-n2nc(C)c(Br)c2C)ccc1=O` [Compound 76], for which the “Test C control value” with Alternaia brassicicola is on record as “H (H shows the control value more than 50%)”. Also, the “Test D control value” in test [1] is “H (H shows the control value more than 50%)”. For the same molecule, in the test on Botrytis cinerea, the “Test B control value” is recorded as “H (H shows the control value more than 50%)”. The “Test E control value” with Puccinia recondita is recorded as “L (L shows the control value of 50% or less)”. Also, the “Test G control value” in the test with Plasmopara viticola is reported as “L (L shows the control value of 50% or less)”.
